The list shows a part of the results. Most values come without repeats; read them as rough.
Assays:
Assay in all cases: cell count relative to DMSO control; melanoma cells; higher = more viable cells
Settings in all cases: library dose: low library concentration; 72 h
MZ2-MEL = tested on: MZ2-MEL
MeWo = tested on: MeWo
RPMI7951 = tested on: RPMI7951
RVH-421 = tested on: RVH-421
SkMel28 = tested on: SkMel28
SkMel2 = tested on: SkMel2
SkMel30 = tested on: SkMel30
SkMel5 = tested on: SkMel5
UACC257 = tested on: UACC257
UACC62 = tested on: UACC62
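Further: cell number obtained by counting DAPI-stained nuclei in high-throughput microscope images with image analysis software, screen run in 1,536-well plates.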

Row | SMILES | cell count (MZ2-MEL) | cell count (MeWo) | cell count (RPMI7951) | cell count (RVH-421) | cell count (SkMel28) | cell count (SkMel2) | cell count (SkMel30) | cell count (SkMel5) | cell count (UACC257) | cell count (UACC62)
1 | CCN(CC)CCNC(=O)c1c(C)[nH]c(/C=C2\C(=O)Nc3ccc(F)cc32)c1C [sunitinib] + c1cc(-c2cnn3cc(-c4ccc(OCCN5CCCCC5)cc4)cnc23)ccn1 [Dorsomorphin] (first compound 0.4 µM, partner dose 0.4 µM) | 101% | 87.9% | 118% | 132% | 101% | 118% | 76.8% | 97% | 81.4% | 85.9%
2 | Cn1cnc2c(F)c(Nc3ccc(Br)cc3Cl)c(C(=O)NOCCO)cc21 [selumetinib] + Cc1cc(N2CCOCC2)cc2[nH]c(-c3c(NC[C@@H](O)c4cccc(Cl)c4)cc[nH]c3=O)nc12 [BMS536924] (first compound 0.015 µM, partner dose 0.2 µM) | 75.2% | 80.9% | 123% | 89.6% | 90.4% | 61% | 49.2% | 104% | 77% | 64.9%
3 | C[C@]1(O)C[C@@H](c2nc(-c3ccc4ccc(-c5ccccc5)nc4c3)c3c(N)nccn32)C1 + OCCn1cc(-c2cnc3nnn(Cc4ccc5ncccc5c4)c3n2)cn1 [PF04217903] (first compound 0.4 µM, partner dose 1 µM) | 98.6% | 89.8% | 99.8% | 97.7% | 94.5% | 81.1% | 77% | 91.4% | 118% | 98%
4 | COc1cc([C@@H]2c3cc4c(cc3[C@@H](O[C@@H]3O[C@@H]5CO[C@@H](C)O[C@H]5[C@H](O)[C@H]3O)[C@H]3COC(=O)[C@H]23)OCO4)cc(OC)c1O [etoposide] + COc1cc2c(Oc3ccc4[nH]c(C)cc4c3F)ncnc2cc1OCCCN1CCCC1 [cediranib] (first compound 0.02 µM, partner dose 0.4 µM) | 88.8% | 91.8% | 115% | 101% | 94.8% | 98.3% | 105% | 99.3% | 93.6% | 76.1%
5 | Cn1cnc2c(F)c(Nc3ccc(Br)cc3Cl)c(C(=O)NOCCO)cc21 [selumetinib] + O=C1NC(=O)/C(=C/c2ccc(-c3ccc(F)cc3O)o2)S1 [AS252424] (first compound 0.015 µM, partner dose 1 µM) | 66.8% | 95.4% | 125% | 89.4% | 82.6% | 67.9% | 71.3% | 118% | 84.6% | 73.5%
6 | CCN(CC)CCNC(=O)c1c(C)[nH]c(/C=C2\C(=O)Nc3ccc(F)cc32)c1C [sunitinib] + CCN(CC)CCCCNc1ncc2cc(-c3cc(OC)cc(OC)c3)c(NC(=O)NC(C)(C)C)nc2n1 [PD173074] (first compound 0.4 µM, partner dose 0.1 µM) | 110% | 88% | 109% | 104% | 86.6% | 118% | 58.8% | 114% | 98% | 60.7%
7 | COc1cc([C@@H]2c3cc4c(cc3[C@@H](O[C@@H]3O[C@@H]5CO[C@@H](C)O[C@H]5[C@H](O)[C@H]3O)[C@H]3COC(=O)[C@H]23)OCO4)cc(OC)c1O [etoposide] + COc1cc2ncnc(Nc3ccc(Oc4ccccc4)cc3)c2cc1OC [SrcI1] (first compound 0.02 µM, partner dose 2 µM) | 90.3% | 81.6% | 94.1% | 130% | 92.7% | 93.8% | 80.9% | 100% | 114% | 87.1%
8 | C[C@]1(O)C[C@@H](c2nc(-c3ccc4ccc(-c5ccccc5)nc4c3)c3c(N)nccn32)C1 + Cc1cc(N2CCOCC2)cc2[nH]c(-c3c(NC[C@@H](O)c4cccc(Cl)c4)cc[nH]c3=O)nc12 [BMS536924] (first compound 0.4 µM, partner dose 0.2 µM) | 97.5% | 86.2% | 102% | 97.7% | 101% | 71.4% | 102% | 99.6% | 72.4% | 103%
9 | C[C@]1(O)C[C@@H](c2nc(-c3ccc4ccc(-c5ccccc5)nc4c3)c3c(N)nccn32)C1 + Cn1cncc1[C@@](N)(c1ccc(Cl)cc1)c1ccc2c(c1)c(-c1cccc(Cl)c1)cc(=O)n2C [tipifarnib] (first compound 0.4 µM, partner dose 0.01 µM) | 88% | 86% | 80.3% | 76.7% | 92.8% | 60% | 82.8% | 81.7% | 79.2% | 68.2%
10 | Cn1cnc2c(F)c(Nc3ccc(Br)cc3Cl)c(C(=O)NOCCO)cc21 [selumetinib] + CN(C)S(=O)(=O)c1ccc2c(c1)/C(=C/c1cc3c([nH]1)CCCC3)C(=O)N2 [SU6656] (first compound 0.015 µM, partner dose 0.4 µM) | 73.3% | 88.9% | 103% | 63.8% | 80.4% | 67.9% | 70.9% | 91.3% | 87.5% | 78.4%
11 | Cn1cnc2c(F)c(Nc3ccc(Br)cc3Cl)c(C(=O)NOCCO)cc21 [selumetinib] + CC1(C)NC(=O)N(c2ccc([N+](=O)[O-])c(C(F)(F)F)c2)C1=O [nilutamide] (first compound 0.015 µM, partner dose 1 µM) | 95% | 86.7% | 135% | 85.3% | 94.2% | 82.4% | 66.5% | 97.6% | 75.3% | 85.7%
12 | CCN(CC)CCNC(=O)c1c(C)[nH]c(/C=C2\C(=O)Nc3ccc(F)cc32)c1C [sunitinib] + COc1ccc(-c2ccc3c(N4CCOCC4)nc(N4C[C@@H](C)O[C@@H](C)C4)nc3n2)cc1CO [KU0063794] (first compound 0.4 µM, partner dose 0.02 µM) | 110% | 86.1% | 116% | 123% | 81.8% | 106% | 61.2% | 99.5% | 78.4% | 80.3%
13 | COc1cc([C@@H]2c3cc4c(cc3[C@@H](O[C@@H]3O[C@@H]5CO[C@@H](C)O[C@H]5[C@H](O)[C@H]3O)[C@H]3COC(=O)[C@H]23)OCO4)cc(OC)c1O [etoposide] + O=C(O)C(=O)Nc1sc2c(c1C(=O)O)CCNC2 [TCS401] (first compound 0.02 µM, partner dose 1.66667 µM) | 91.7% | 87.1% | 97% | 114% | 80.2% | 87.5% | 76.5% | 96.6% | 87.2% | 73.7%
14 | CCN(CC)CCNC(=O)c1c(C)[nH]c(/C=C2\C(=O)Nc3ccc(F)cc32)c1C [sunitinib] + COc1ccc2c(c1)CCC1C2CCC2(C)C(NCCCCCCN3C(=O)C=CC3=O)CCC12 [U73122] (first compound 0.4 µM, partner dose 0.4 µM) | 112% | 89% | 92% | 129% | 104% | 115% | 88% | 111% | 85.7% | 87.4%
15 | C[C@]1(O)C[C@@H](c2nc(-c3ccc4ccc(-c5ccccc5)nc4c3)c3c(N)nccn32)C1 + COc1ccc2c(c1)CCC1C2CCC2(C)C(NCCCCCCN3C(=O)C=CC3=O)CCC12 [U73122] (first compound 0.4 µM, partner dose 0.4 µM) | 95.9% | 92.4% | 69.6% | 103% | 88.4% | 81.9% | 88% | 87.3% | 88.5% | 104%
16 | Cn1cnc2c(F)c(Nc3ccc(Br)cc3Cl)c(C(=O)NOCCO)cc21 [selumetinib] + CC(C)CCN1c2nc(Nc3cc(F)c(O)c(F)c3)ncc2N(C)C(=O)C1C [BID1870] (first compound 0.015 µM, partner dose 0.2 µM) | 89.4% | 81.1% | 103% | 84.9% | 99.8% | 60.3% | 66.3% | 104% | 76.4% | 67.1%
17 | Cn1cnc2c(F)c(Nc3ccc(Br)cc3Cl)c(C(=O)NOCCO)cc21 [selumetinib] + O=C(O)c1ccc(-c2c[nH]c3ncc(-c4ccccc4)cc23)cc1C1CCCC1 [GSK650394] (first compound 0.015 µM, partner dose 0.16 µM) | 88.1% | 79.2% | 121% | 83.2% | 91.5% | 73.9% | 67.8% | 112% | 77.1% | 86%
18 | COc1cc([C@@H]2c3cc4c(cc3[C@@H](O[C@@H]3O[C@@H]5CO[C@@H](C)O[C@H]5[C@H](O)[C@H]3O)[C@H]3COC(=O)[C@H]23)OCO4)cc(OC)c1O [etoposide] + COc1ccc(-c2ccc3c(N4CCOCC4)nc(N4C[C@@H](C)O[C@@H](C)C4)nc3n2)cc1CO [KU0063794] (first compound 0.02 µM, partner dose 0.02 µM) | 89.7% | 105% | 103% | 109% | 73.7% | 99.1% | 91.1% | 88.7% | 98.2% | 94%
19 | C[C@]1(O)C[C@@H](c2nc(-c3ccc4ccc(-c5ccccc5)nc4c3)c3c(N)nccn32)C1 + N#Cc1c(O)c2c(-c3ccc(-c4ccccc4O)cc3)csc2[nH]c1=O [A769662] (first compound 0.4 µM, partner dose 2 µM) | 99.3% | 85.2% | 107% | 92.5% | 87.5% | 86.3% | 90.1% | 98.7% | 88% | 91.4%
20 | C[C@]1(O)C[C@@H](c2nc(-c3ccc4ccc(-c5ccccc5)nc4c3)c3c(N)nccn32)C1 + O=C(O)C(=O)Nc1sc2c(c1C(=O)O)CCNC2 [TCS401] (first compound 0.4 µM, partner dose 1.66667 µM) | 96% | 88% | 99.9% | 117% | 82.5% | 101% | 89.1% | 69.2% | 95.4% | 83.5%
